Experimental findings from PubChem BioAssay AID463173 (ICCB-Longwood Screening Facility, Harvard Medical School, 2010) are described below.

The campaign covered roughly 52,000 compounds. About 4,300 (8.3%) were called active. Cut-off read from the data, not from the text of the source: active = survival mostly below about 52% (no sharp cut-off); inactive = mostly above about 56%. This is one part of the list.

The test system of the assay is DeltatarO mutant. The assay can be described thus: growth inhibition of S. aureus wild type versus tarO mutant, primary screen, teichoic acid synthesis inhibitors, RN4220, OD600 (AID 463173). The settings on record: OD600, 18 h, active compounds read low, screened at 18.75 µg/mL (by protocol).
For `COc1ccccc1C(=O)Nc1ccc(N2CCN(S(C)(=O)=O)CC2)cc1`, the survival was inactive: 72%.

In the case of `Cc1ccc(Cn2c(CNS(=O)(=O)c3ccc(F)c(Cl)c3)nc3cccnc32)cc1`, the survival is inactive: 126%.

Take `OCc1nc2ccc(-c3ccc4nc(CO)[nH]c4c3)cc2[nH]1`: the survival is inactive: 51%.

Consider `CC(C)(C)C(=O)NC1CCN(C(=O)NCc2ccccc2)CC1`, for which the survival is inactive: 94%.

On to `Cc1cc(NC(=O)c2cccc(Cl)c2)ccc1-c1cc2ccccc2oc1=O`, for which the survival was inactive: 73%.

Turning to `Cc1noc(-c2ccc(N3CCCCC3)c([N+](=O)[O-])c2)n1`, the survival was inactive: 57%.

In the case of `Cc1ccccc1CCNC(=O)c1ccc2c(c1)nc1n2CCC(C)C1` (stereo not given), the survival is inactive: 83%.

As to `COc1ccccc1C1Nc2ccccc2-n2c(-c3ccccc3)c3c(=O)n(C)c(=O)n(C)c3c21` (stereo not given), the survival was inactive: 53%.

In the case of `Cc1ccc(NC(=O)CSc2ccc(-c3cccs3)nn2)cc1Cl`, the survival is inactive: 111%.

Consider `CN(c1ccccc1)S(=O)(=O)c1ccc(NC(=O)c2cc(=O)c3ccccc3o2)cc1`, for which the survival was inactive: 57%.

Turning to `N#CSc1cnc(NC2CCCCC2)s1`, the survival is active: 1%.

For `COCC(=O)NCc1nc2cccnc2n1Cc1ccc(F)cc1`, the survival is inactive: 60%.

Turning to `COc1ccc(Nc2cc(C(=O)NCCCN3CCN(c4ccc(OC)cc4)CC3)c3ccccc3n2)cc1`, the survival was inactive: 73%.

As to `COCc1cc(C)nc(SCC(N)=O)c1C#N`, the survival is inactive: 96%.

For `Cc1oc(C)c2c(=O)cc(-c3ccc4c(c3)OCO4)cc(OC(=O)c3cccc(Br)c3)c12`, the survival is inactive: 112%.

Regarding `Cc1ccc(OC(=O)CSc2nnc(-c3ccco3)n2-c2ccccc2)cc1`, the survival was inactive: 52%.

Turning to `Cc1cc(C)n(CCc2nc3c4ccccc4nc(N4CCN(c5ccccc5)CC4)n3n2)n1`, the survival is inactive: 76%.

With `CC(=O)NC1(c2ccccc2)CCN(CC(=O)Nc2c(C)n[nH]c2C)CC1`, the survival was inactive: 95%.

Consider `NC(=O)c1sc2nc3c(cc2c1N)CCCCC3`, for which the survival was inactive: 71%.

On to `COc1cccc(CNC(=O)C2CCCCN2S(=O)(=O)c2ccc(F)cc2)c1` (stereo not given), for which the survival was inactive: 49%.

In the case of `COc1ccc(-c2noc(-c3ccc(N4CCN(c5ccccc5)CC4)c([N+](=O)[O-])c3)n2)cc1OC`, the survival was inactive: 61%.

For the compound `CCOC(=O)C1(C)C=C(Nc2cccc(C(=O)O)c2)C(=O)N1c1cccc(C(=O)O)c1` (stereo not given), the survival was inactive: 78%.

`CCOC(=O)c1sc2sc(C(=O)OCC)c(CN(CC)CC)c2c1CN(CC)CC`: the survival was inactive: 105%.

`CCCCc1nn2c(=O)cc(COC(=O)c3ccc(NC(=O)c4ccccc4C)cc3)nc2s1`: the survival was inactive: 86%.

On to `Cc1ccc(CNS(=O)(=O)c2ccc3[nH]c4c(c3c2)CCCC4)cc1`, for which the survival was inactive: 84%.

Take `Cc1cc(F)ccc1NS(=O)(=O)c1ccc(-n2cccn2)cc1`: the survival is inactive: 88%.

`O=C1CS(=O)(=O)C2(C(=O)N(Cc3ccccc3)c3ccccc32)N1c1ccccc1` (stereo not given): the survival is inactive: 113%.

`COc1ccc(OC)c(CNC(=O)Cc2ccc(NC(=O)N3CCSc4ncccc43)cc2)c1`: the survival was inactive: 72%.

With `O=C(C1CCN(c2ncnc3c2nc2n3CCCCC2)CC1)N1CCN(c2cccc(Cl)c2)CC1`, the survival was inactive: 64%.

`Cc1ccc(CCNC(=O)c2ccc3c(c2)nc2n3CCC(C)C2)cc1` (stereo not given): the survival was inactive: 76%.

In the case of `COc1cc2c(cc1OC)C(COc1ccccc1OC)N(C(=O)COc1ccc(Cl)cc1)CC2` (stereo not given), the survival is active: 47%.

Take `COc1cc2c(cc1OC)C(COc1ccc3c(C)cc(=O)oc3c1)N(C(=O)c1cccc(C)c1)CC2` (stereo not given): the survival is inactive: 61%.

On to `Cn1c(=O)c(=O)n(C)c2cc(S(=O)(=O)N3CCCC3C(=O)Nc3ccccc3F)ccc21` (stereo not given), for which the survival is inactive: 92%.

As to `O=C(NCCc1ccccc1)c1ccc2c(c1)N(Cc1c(F)cccc1Cl)C(=O)CS2`, the survival was inactive: 54%.

Consider `COc1ccc(NC(=O)CSc2nncn3c2cc2oc(C)cc23)cc1OC`, for which the survival was inactive: 109%.

Regarding `Cc1ccc(N(CC(=O)Nc2cccc(F)c2)S(=O)(=O)c2cccs2)cc1`, the survival is inactive: 75%.

`N#CC(C#N)=C(N)/C(C#N)=C\c1ccc(-c2ccccc2)o1`: the survival was inactive: 80%.

For the compound `Cc1ccc(N(CC(=O)N2CCN(c3ccccc3F)CC2)S(=O)(=O)c2c(C)noc2C)cc1`, the survival is inactive: 92%.

In the case of `CCOC(=O)CSc1ccc2nnc(CCNS(=O)(=O)c3ccccc3)n2n1`, the survival was inactive: 63%.

As for `Cc1ccc(CCNC(=O)C(NS(=O)(=O)c2ccc3c(c2)oc(=O)n3C)C(C)C)cc1` (stereo not given), the survival was inactive: 88%.

`COc1cc2c(cc1OC)C(c1ccc(F)cc1)N(c1cccc(C#N)c1)C(=O)C2` (stereo not given): the survival is inactive: 66%.

For `O=C(NC1CCCCC1)C(c1cccs1)N(Cc1cccs1)C(=O)c1cccs1` (stereo not given), the survival is inactive: 88%.

Consider `O=C(Nc1cccc(C(=O)OCc2cc(=O)n3nc(C4CC4)sc3n2)c1)c1cccc(F)c1`, for which the survival was inactive: 88%.

For the compound `COC(=O)c1ccccc1NC(=O)c1ncoc1-c1ccco1`, the survival was inactive: 62%.

With `CCn1c(C(=O)NCc2ccccc2C)cc2oc3ccccc3c21`, the survival was active: 14%.

For the compound `OC1CCN(c2cc(-c3ccccc3)nc3cc(-c4cccc(Cl)c4)nn23)CC1`, the survival was inactive: 95%.

Turning to `Cc1ccccc1OCCSc1nc2ccc(NC(=O)c3ccccc3)cc2s1`, the survival is inactive: 57%.

Take `Cc1nc(-c2cccc(NC(=O)Nc3ccc([N+](=O)[O-])cc3)c2)no1`: the survival was inactive: 108%.

Take `CNC(=O)C1CCC(Cn2c(=O)c3sccc3n(Cc3ccc(F)cc3)c2=O)CC1` (stereo not given): the survival is inactive: 79%.

Take `CCc1ccc(NC(=O)CSc2nccn2-c2ccc(OC)cc2)cc1`: the survival was inactive: 107%.

On to `CC1(C(=O)Nc2cccc(Br)c2)Cc2ccccc2C(=O)O1` (stereo not given), for which the survival is inactive: 84%.

As to `CC(=O)N1CCCc2cc(S(=O)(=O)N3CCC(C(=O)NC4CCC(C)CC4)CC3)ccc21` (stereo not given), the survival is inactive: 66%.

On to `CCc1ccc(N2C(=O)C3C4CCCC4=C4CCCC4C3C2=O)cc1` (stereo not given), for which the survival is inactive: 76%.

For the compound `Cc1ccc2nc(N3CCN(Cc4nnnn4C4CCCC4)CC3)c(C#N)cc2c1`, the survival was inactive: 72%.

Take `COCCCNC(=O)CCC(=O)N1Cc2cccc(OC)c2Oc2ncccc21`: the survival was inactive: 87%.

Turning to `CCCN1C(=O)c2[nH]nc(-c3ccccc3O)c2C1c1ccc(OCc2ccccc2)c(OC)c1` (stereo not given), the survival is active: 44%.

For `COc1cccc2c1cc1c(=O)n(CC(=O)NC3CCCCC3)nc(C)n12`, the survival was inactive: 96%.

Turning to `COc1cc(C(=O)N2CCN(c3ccc(Nc4ccc(C)cc4)nn3)CC2)cc(OC)c1OC`, the survival was inactive: 78%.

With `O=C(CC(C(=O)O)C1CCCO1)Nc1ccc(F)cc1` (stereo not given), the survival was inactive: 95%.

On to `Cc1ccc(NC(=O)C(Cc2ccccc2)NS(=O)(=O)c2ccc3c(c2)oc(=O)n3C)cc1F` (stereo not given), for which the survival was inactive: 83%.

With `O=C(Nc1nc2n(n1)C(c1ccc(F)cc1)C=C(c1ccccc1)N2)c1ccc(Cl)cc1` (stereo not given), the survival is inactive: 48%.

As for `NC(=O)CSc1oc(-c2ccco2)nc1S(=O)(=O)c1ccc(Cl)cc1`, the survival is inactive: 70%.

Turning to `Cc1ccc(NC(=O)c2cc3cc(C)ccc3n2C)cc1`, the survival is inactive: 61%.

As for `CCOC(=O)c1ccc(NC(=O)Cn2c(=O)cc(C)c3c(C)nn(-c4cccc(F)c4)c32)cc1`, the survival is inactive: 69%.

For the compound `COc1ccc(C2CC(=O)C(C=NCC(C)C)=C(O)C2)cc1` (stereo not given), the survival is inactive: 81%.

`CCCc1cnc2c(c1SCC(=O)N1CCC(C)CC1)c(=O)n(C)c(=O)n2C`: the survival was inactive: 96%.

For `O=C(NCCc1ccccc1)c1sc2ncccc2c1-n1cccc1`, the survival is inactive: 94%.

On to `CCC1CCCCN1C(=O)Cn1c(=O)oc2cc(S(=O)(=O)N3CCCCC3)ccc21` (stereo not given), for which the survival was inactive: 80%.

With `Cc1nn(Cc2ccccc2Cl)c(C)c1NC(=O)c1cc(C(C)C)on1`, the survival is inactive: 60%.

Turning to `Cc1ccc(C(=O)c2oc3ccccc3c2NC(=O)Cc2coc3cc(C)ccc23)cc1`, the survival is inactive: 74%.

For the compound `COc1ccc(CCNC(=O)Cn2c(=O)n(-c3ccc(C)c(C)c3)c(=O)c3c(C)c(C)sc32)cc1OC`, the survival is inactive: 64%.

Regarding `CCc1ccccc1NC(=O)Cn1ccn(-c2cc(C)cc(C)c2)c(=O)c1=O`, the survival was inactive: 67%.

With `Clc1cccc(CSc2nncn3c2cc2sccc23)c1`, the survival is inactive: 57%.

Take `COc1ccc(OC)c(C(=O)c2c(N)c(-c3nc(-c4ccc(C)c(C)c4)cs3)c3ccccn23)c1`: the survival was inactive: 105%.

For the compound `O=C(NCCCO)c1cc2sc3ccccc3c2s1`, the survival is inactive: 83%.

In the case of `Cc1ccccc1-c1nc(CS(=O)CC(=O)N2CCN(c3cc(Cl)ccc3C)CC2)c(C)o1` (stereo not given), the survival was active: 30%.

Regarding `CS(=O)(=O)N1CCN(c2ncnc3c(-c4ccc(Cl)cc4)nsc23)CC1`, the survival is inactive: 99%.

With `CCC(=O)N1c2ccccc2CC1C(=O)NCc1cccc(C)c1` (stereo not given), the survival is inactive: 73%.

`O=C1/C(=C/c2ccccc2)Nc2ccccc21`: the survival was inactive: 112%.

On to `CCCCC(=O)Nc1cccc(-c2nc3ncccc3o2)c1C`, for which the survival was inactive: 80%.

Take `CCN(CC)CCCNC(=O)Cn1nc(C)n2c(cc3sccc32)c1=O`: the survival was inactive: 95%.

As to `Cc1ccc(OCC(=O)Nc2ccc(OCc3cc(=O)n4cccc(C)c4n3)cc2)cc1C`, the survival was active: -5%.

In the case of `COc1ccc(CCNC(=O)Cc2c(C)c3c(cc(C)c4c(C)coc43)oc2=O)cc1OC`, the survival is inactive: 72%.

As for `COc1ccc(CC(=O)NC2CC(=O)N(c3cccc(F)c3)C2)cc1` (stereo not given), the survival is inactive: 94%.

For the compound `Cc1nn(C(C)C(=O)NC2CCCCC2)c(=O)c2c1sc1ccccc12` (stereo not given), the survival was inactive: 58%.

For the compound `COc1ccc(CCNC(=O)c2ccc3c(c2)CCN3S(C)(=O)=O)cc1`, the survival is inactive: 82%.

Consider `CCN(C(=O)C(=O)Nc1ccc2nc3n(c(=O)c2c1)CCCCC3)c1ccc(F)cc1`, for which the survival is inactive: 94%.

As to `Cc1ccc2sc(N(Cc3cccnc3)C(=O)CCOc3ccccc3)nc2c1C`, the survival is inactive: 79%.

For the compound `COc1cc(C(=O)CC2(O)C(=O)N(Cc3ccccc3Cl)c3ccccc32)cc(OC)c1OC` (stereo not given), the survival is inactive: 71%.

For `Cc1c(C(=O)N(Cc2ccc(N(C)C)cc2)C2CCS(=O)(=O)C2)oc2ccccc12` (stereo not given), the survival is active: 42%.
